Data from a collection of fitness landscapes (doi:10.1126/science.1257360).
Some of the results follow.

B1: PhoQ; a variant is named by its letters at X, in order, P23837 (parent)
chain: MKKLLRLFFPLSLRVRFLLATAAVVLVLSLAYGMVALIGYSVSFDKTTFRLLRGESNLFYTLAKWENNKLHVELPENIDKQSPTMTLIYDENGQLLWAQRDVPWLMKMIQPDWLKSNGFHEIEADVNDTSLLLSGDHSIQQQLQEVREDDDDAEMTHSVAVNVYPATSRMPKLTIVVVDTIPVELKSSYMVWSWFIYVLSANLLLVIPLLWVAAWWSLRPIEALAKEVRELEEHNRELLNPATTRELTSLVRNLNRLLKSERERYDKYRTTLTDLTHSLKTPLXXLQXXLRSLRSEKMSVSDAEPVMLEQISRISQQIGYYLHRASMRGGTLLSRELHPVAPLLDNLTSALNKVYQRKGVNISLDISPEISFVGEQNDFVEVMGNVLDNACKYCLEFVEISARQTDEHLYIVVEDDGPGIPLSKREVIFDRGQRVDTLRPGQGVGLAVAREITEQYEGKIVAGESMLGGARMEVIFGRQHSAPKDE

Variants of: B1
Test: enrichment ratio after two sorts for PhoP signalling (ratio (wild type AVST 3.29)); higher = more functional
Settings: with PhoP (E. coli)

Variant	enrichment ratio
NPCK	≤ 0.25
NYFC	≤ 0.25
FGEF	≤ 0.25
RYDK	≤ 0.25
IDAY	≤ 0.25
SVKF	≤ 0.25
SSIF	4.39
DQPC	≤ 0.25
RSTN	≤ 0.25
CLYP	≤ 0.25
ILYC	≤ 0.25
IYYK	≤ 0.25
DKLE	≤ 0.25
PIVH	≤ 0.25
GHWL	≤ 0.25
PVTQ	≤ 0.25
DSLW	≤ 0.25
QIPA	≤ 0.25
LQCD	≤ 0.25
ADEW	≤ 0.25
TLNG	3.64
EHSC	≤ 0.25
NIGR	≤ 0.25
VMCM	≤ 0.25

Variant	enrichment ratio
LTSY	≤ 0.25
LWEG	≤ 0.25
PSKQ	≤ 0.25
GHFM	≤ 0.25
QVDM	2.81
KPMN	≤ 0.25
NMDI	≤ 0.25
HAPV	≤ 0.25
NLIR	0.571
PRTL	≤ 0.25
DNCR	≤ 0.25
HQRW	≤ 0.25
MYGY	≤ 0.25
ELLR	0.33
APRC	≤ 0.25
ILNH	≤ 0.25
PKVT	≤ 0.25
SIMA	4.54
IKVI	2.58
GGHG	≤ 0.25
KHES	≤ 0.25
VQKA	≤ 0.25
DLQV	≤ 0.25
PVQW	≤ 0.25

Variant	enrichment ratio
TMVR	≤ 0.25
RRHV	≤ 0.25
PENF	≤ 0.25
YFNY	≤ 0.25
YDML	≤ 0.25
GMWV	≤ 0.25
IREQ	≤ 0.25
RVCQ	≤ 0.25
ELGG	≤ 0.25
QTII	≤ 0.25
SRNK	≤ 0.25
LNRA	≤ 0.25
HPFD	≤ 0.25
HSHN	≤ 0.25
HPYK	≤ 0.25
NKRN	≤ 0.25
SCNE	≤ 0.25
YNQM	0.38
HNQL	≤ 0.25
YNQC	≤ 0.25
WLVH	≤ 0.25
ARPE	≤ 0.25
VMPT	≤ 0.25
GERK	≤ 0.25

Variant	enrichment ratio
YHHR	≤ 0.25
TDAW	≤ 0.25
LIKP	≤ 0.25
YGMI	2.77
EQGR	≤ 0.25
NHTR	≤ 0.25
IPDP	≤ 0.25
AKVG	≤ 0.25
SVNC	3.7
QPGL	≤ 0.25
NIGA	≤ 0.25
KSKW	≤ 0.25
LFTE	≤ 0.25
FWII	≤ 0.25
SCPQ	≤ 0.25
LLVM	≤ 0.25
STRA	≤ 0.25
EFKL	≤ 0.25
DYSE	≤ 0.25
EQCE	≤ 0.25
DSVC	≤ 0.25
NMQN	≤ 0.25
DPQL	≤ 0.25
VQSR	≤ 0.25

Variant	enrichment ratio
NWHC	≤ 0.25
NWWM	≤ 0.25
CFLV	≤ 0.25
LNFT	≤ 0.25
YHAW	≤ 0.25
TQAD	11.6
TGGK	≤ 0.25
QKHQ	≤ 0.25
KASA	≤ 0.25
SSCL	18.7
IMHR	≤ 0.25
WFGN	≤ 0.25
AILG	15.7
GHGE	≤ 0.25
AQNK	≤ 0.25
RFLL	≤ 0.25
PKDH	≤ 0.25
WQMI	≤ 0.25
QACT	≤ 0.25
MWAR	≤ 0.25
WDTA	≤ 0.25
YRSF	≤ 0.25
IDRC	≤ 0.25
AVII	2.36

Variant	enrichment ratio
PSQM	≤ 0.25
ACFH	≤ 0.25
MECP	≤ 0.25
FPHF	≤ 0.25
AFGM	≤ 0.25
HPKK	≤ 0.25
AKGE	≤ 0.25
WNYT	≤ 0.25
HHEM	≤ 0.25
KCYK	≤ 0.25
NQCD	≤ 0.25
EFRH	≤ 0.25
GWEL	≤ 0.25
PEKN	≤ 0.25
EIRS	≤ 0.25
RLTR	≤ 0.25
FYLI	≤ 0.25
PIAK	≤ 0.25
TKRT	≤ 0.25
SDNQ	≤ 0.25
TKTM	2.79
ENTT	≤ 0.25
ASII	12.7
FENC	≤ 0.25

Variant	enrichment ratio
LMSF	≤ 0.25
HQPR	≤ 0.25
AAFR	≤ 0.25
IHSF	≤ 0.25
VRYN	≤ 0.25
GKHV	≤ 0.25
LQCP	≤ 0.25
HEYQ	≤ 0.25
IECC	11.9
TDRM	≤ 0.25
SDLA	1.18
KDDT	≤ 0.25
KAYE	≤ 0.25
WSNP	≤ 0.25
HLDK	≤ 0.25
TELI	19.5
GNKF	≤ 0.25
EVRA	≤ 0.25
QEKT	≤ 0.25
QRDG	≤ 0.25
VKMH	≤ 0.25
TSYN	1.56
FTVN	≤ 0.25
DGQI	≤ 0.25

Variant	enrichment ratio
RLGH	≤ 0.25
VSVK	≤ 0.25
GPWT	≤ 0.25
HHCD	≤ 0.25
RLRC	≤ 0.25
NLAG	≤ 0.25
YIVP	≤ 0.25
PFSD	≤ 0.25
VYPH	≤ 0.25
AGLS	13.8
LCYP	≤ 0.25
TFET	≤ 0.25
MMWL	≤ 0.25
QYNS	≤ 0.25
FAFE	≤ 0.25
DQEG	≤ 0.25
ARIW	≤ 0.25
ATTA	≤ 0.25
HTLE	≤ 0.25
KKDS	≤ 0.25
PTRI	≤ 0.25
NFPK	≤ 0.25
ARYE	≤ 0.25
VYSF	≤ 0.25

Variant	enrichment ratio
KHCH	≤ 0.25
LYMP	≤ 0.25
QVGY	≤ 0.25
LKIR	≤ 0.25
AIST	6.85
DTCV	≤ 0.25
IPNN	≤ 0.25
LHNR	≤ 0.25
DMRC	≤ 0.25
VISG	≤ 0.25
TRTY	≤ 0.25
SART	≤ 0.25
AEVV	14.7
WNCH	≤ 0.25
IIIK	≤ 0.25
IGES	≤ 0.25
TSWS	9.6
NSCL	≤ 0.25
ANSR	≤ 0.25
LQDF	≤ 0.25
NFAW	≤ 0.25
KMYD	≤ 0.25
SWVN	≤ 0.25
PSDM	≤ 0.25

Variant	enrichment ratio
KGAH	≤ 0.25
ENLT	≤ 0.25
DLYI	≤ 0.25
TSYD	≤ 0.25
PCDQ	≤ 0.25
GSEN	≤ 0.25
DYFY	≤ 0.25
ERYS	≤ 0.25
HPCG	≤ 0.25
SITW	4
KEFC	≤ 0.25
NVFP	≤ 0.25
YAES	≤ 0.25
IYCY	≤ 0.25
KILE	≤ 0.25
GHHT	≤ 0.25
VCKN	≤ 0.25
GENA	≤ 0.25
INGY	≤ 0.25
STTC	5.19
NAPN	≤ 0.25
GEHP	≤ 0.25
DYQM	≤ 0.25
DYRP	≤ 0.25

Variant	enrichment ratio
RCKA	≤ 0.25
ASRT	≤ 0.25
YNDP	≤ 0.25
KPHG	≤ 0.25
ATRK	≤ 0.25
HTRY	≤ 0.25
WPSP	≤ 0.25
YQQD	≤ 0.25
YEVH	0.412
HIGP	≤ 0.25
ISAK	≤ 0.25
YHGH	≤ 0.25
ATRV	≤ 0.25
SWEC	≤ 0.25
GMCL	6.21
PVCQ	≤ 0.25
EKGF	≤ 0.25
LIRF	≤ 0.25
RINL	0.723
HAHH	≤ 0.25
NRIN	≤ 0.25
GGIF	≤ 0.25
GGST	4.04
GSEG	≤ 0.25

Variant	enrichment ratio
KFKV	≤ 0.25
WFPA	≤ 0.25
HCKI	≤ 0.25
GPRT	≤ 0.25
QQVH	≤ 0.25
HNTF	≤ 0.25
QPHN	≤ 0.25
PYVM	≤ 0.25
KLHR	≤ 0.25
ENTS	≤ 0.25
QPYM	≤ 0.25
HKLS	≤ 0.25
RHGT	≤ 0.25
MEHR	≤ 0.25
NLWY	≤ 0.25
RHEW	≤ 0.25
DAQM	≤ 0.25
IICH	≤ 0.25
FKRS	≤ 0.25
TQKV	≤ 0.25
YREK	≤ 0.25
VHNF	≤ 0.25
FLGG	≤ 0.25
NCYH	≤ 0.25

Variant	enrichment ratio
LAYM	4.09
APRA	≤ 0.25
MFAM	≤ 0.25
KKCT	≤ 0.25
DWWS	≤ 0.25
YGLY	0.346
SHRE	≤ 0.25
FITV	≤ 0.25
MNCN	≤ 0.25
NWLT	≤ 0.25
IQFA	≤ 0.25
YHAA	≤ 0.25
LNEV	≤ 0.25
WNLR	≤ 0.25
RNIT	≤ 0.25
RQDK	≤ 0.25
LMWP	≤ 0.25
GSVF	0.933
